This passage reports binding signal (log2 normalized intensity) results from publication PMC10726135.

The list shows a part of the results. At the low end of the ranking the order means little. The protein was read in a cell extract, so binding may be indirect.

The assay addresses T1, HNF4alpha8 (COS-7 nuclear extract) (UniProt P41235-5).
T1 sequence: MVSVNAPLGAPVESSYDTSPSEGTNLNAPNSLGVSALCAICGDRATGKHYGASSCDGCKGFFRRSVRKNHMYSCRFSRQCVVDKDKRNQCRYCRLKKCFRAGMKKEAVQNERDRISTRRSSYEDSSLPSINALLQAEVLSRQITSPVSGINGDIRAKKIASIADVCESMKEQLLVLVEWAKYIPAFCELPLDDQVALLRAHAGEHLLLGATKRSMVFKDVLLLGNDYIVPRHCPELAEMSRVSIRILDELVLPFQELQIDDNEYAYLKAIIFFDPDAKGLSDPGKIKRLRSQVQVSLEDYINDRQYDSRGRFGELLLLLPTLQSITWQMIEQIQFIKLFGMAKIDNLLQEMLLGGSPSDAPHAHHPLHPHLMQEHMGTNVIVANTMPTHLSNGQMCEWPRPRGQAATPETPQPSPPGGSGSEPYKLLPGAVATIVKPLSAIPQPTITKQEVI
The experiment in a line: protein-binding microarray. The following applies: COS-7 nuclear extract on double-stranded Agilent 4x180k PBM; binding buffer, salt, pH and temperature not given; high values mean tight binding; double strand, one strand shown; sequences stand for … in …GCCTAGGGAGATTAGAGTATCGGTCGA
Consider TTTCTTTGTACTGCTTCCAAAACATTGTAG, for which the binding signal (log2 normalized intensity) was -0.0169.

As for GAGGCTGAAGTGAAGTTACAAAGGTCACAC, the binding signal (log2 normalized intensity) was 6.46.

Regarding AGATCAGATGGGGTGAACTTTGGACCACAT, the binding signal (log2 normalized intensity) came to 8.04.

Regarding GAGGGGTCTGAGCACATCACACAGGCATAT, the binding signal (log2 normalized intensity) is -1.32.

For ACAGTAACCCTTGAGCTCTGCACAGCACAA, the binding signal (log2 normalized intensity) was -1.17.

With GCACCAGAGCAGGACTGATATCCTGGGCTT, the binding signal (log2 normalized intensity) was -1.18.

In the case of TAGTACTCTGCCATGTGCTATTCTGTCTCC, the binding signal (log2 normalized intensity) came to 0.737.

As for CTTAAGTCTGAATTCTAGTCCTATCACTGT, the binding signal (log2 normalized intensity) worked out at 0.249.

For CATCACACTCCTACCCATTCTTCAGAGGCA, the binding signal (log2 normalized intensity) is -1.32.

ACCTCCACCAGATAGCAAGGAGACATCGCT: the binding signal (log2 normalized intensity) is -1.28.

For the sequence CAAGAATTGGAACCCTGCTGTCCATAGACA, the binding signal (log2 normalized intensity) was -1.42.

As for AGATGCCAGGAGAGCCGAAGCAGTCAAATG, the binding signal (log2 normalized intensity) is -1.37.

TCCATTCTCACTGACTCACGGCAGCTTGTA: the binding signal (log2 normalized intensity) is -1.24.

For the sequence TGGACCATTGCTGACCTTGCCTCTGTGCTC, the binding signal (log2 normalized intensity) stood at 1.8.

Turning to GGAAGTCCAGCATTCTTTTCCCCATACCAG, the binding signal (log2 normalized intensity) was determined as 0.799.

On to TGACCCTTGCACTGTAAGATCAAGATTAAG, for which the binding signal (log2 normalized intensity) was determined as 3.95.

On to AAGAAAAAACAAAAAGATGGTCTTACAACA, for which the binding signal (log2 normalized intensity) was -0.886.

ACCGAGCAGCTCTTTACAAAGCCCATGCTG: the binding signal (log2 normalized intensity) is -1.42.

Take CTGGTCGACCTCCCCGTCACCCTCCCCGCC: the binding signal (log2 normalized intensity) amounted to 5.78.

On to TTGACCACCTACTGTTTGTGCAGAGGAGAT, for which the binding signal (log2 normalized intensity) amounted to 0.828.

Turning to TCTACACTGCTTACCCTGCAGTGTGACCTT, the binding signal (log2 normalized intensity) worked out at 4.68.

Consider GGCTCAGGTAAAGGCATGCTTGGCATCCCT, for which the binding signal (log2 normalized intensity) was -1.12.

For the sequence GGCCAAATCAGAACTGAGTTACTTGTGCTA, the binding signal (log2 normalized intensity) was -1.28.

Take CAAGAGGCTTCTTATCAGCAGCTGGGGTGA: the binding signal (log2 normalized intensity) amounted to 0.485.

For GATAAGGATGGATCAAAGGAAACTGCTTGG, the binding signal (log2 normalized intensity) was -1.2.

For the sequence CTCCCCCTCCTGCCCTATGTCCTCCAGCTC, the binding signal (log2 normalized intensity) worked out at 4.16.

For TGCTGGGGGCTGGGCCCCACAGTGCATCTG, the binding signal (log2 normalized intensity) is -1.21.

For the sequence AAACCATCCCAGGCATCCAGGCCAGTGGGG, the binding signal (log2 normalized intensity) is -1.15.

For TGTGTTGCACTGTTTGCATAAAGTTAAACT, the binding signal (log2 normalized intensity) amounted to 0.142.

Regarding CTGAACCTTGTCCCACTCTTGGGTCAACAT, the binding signal (log2 normalized intensity) was 3.01.

For the sequence GTCACGTGGGTCCAGGGTCACGTGCCGCTG, the binding signal (log2 normalized intensity) is 1.45.

For AGATAGCTGTTAAATGGAGTGGAATTTGGA, the binding signal (log2 normalized intensity) amounted to 3.36.

As for AGTACCTCTCAAAAATCTCACTCACCCTAA, the binding signal (log2 normalized intensity) was -1.38.

For CTACAGCCTGATGTTGACAGAGCTCCCATC, the binding signal (log2 normalized intensity) was -1.27.

Consider AAAGTCAACACTTAGGGTGGATACTTTGAC, for which the binding signal (log2 normalized intensity) turned out to be 0.31.

On to CACAGTGTTATTTGCTGAGGTGGGGGAGGT, for which the binding signal (log2 normalized intensity) stood at 0.772.

As for AGGAATATTAGTTTAACTCCTAGGTAATTT, the binding signal (log2 normalized intensity) is -1.01.

Consider GGTATGTTAGATTAGTGTGCAGCTTTGTGT, for which the binding signal (log2 normalized intensity) came to 1.72.

As for TTAAGCAGATGTTTCTGCAAGCACACTGTC, the binding signal (log2 normalized intensity) was -1.18.

Consider TAAGGAGCTGAGTCATAGTGGACTTTGCCT, for which the binding signal (log2 normalized intensity) was 7.86.

Take GTCCTTCCCCCGCCAGATGTTTTTACCCTG: the binding signal (log2 normalized intensity) is 2.88.

In the case of TGCCTTATCTGGTTCAAAGGTCATTTCTGC, the binding signal (log2 normalized intensity) was found to be 7.61.

For the sequence TACCCTGAGGGACTCACTATCTTGAGGCTG, the binding signal (log2 normalized intensity) was -1.31.

In the case of ATTTATTAACTGGAGATAACACAACCCCTA, the binding signal (log2 normalized intensity) was 2.41.

With AAAAGTCTACCTTTGGCCTGGGGATTTACT, the binding signal (log2 normalized intensity) came to 1.67.

Consider GTAACAGTTGCAGCTTCAGGAGCTGCAGGG, for which the binding signal (log2 normalized intensity) is -1.16.

For the sequence GAATGCGCTTTCATGAGATGAAAGCTTCTG, the binding signal (log2 normalized intensity) was -1.32.

GCAAACCTCCCCAGCCCAGGTGGCTGCATC: the binding signal (log2 normalized intensity) was 0.909.

On to ATAAAAGAGAAGATAATGGATTGGGGGCCA, for which the binding signal (log2 normalized intensity) was -1.36.

With AGATCTCAAAGTCCAAATAGCGCTAACTCT, the binding signal (log2 normalized intensity) worked out at 3.33.

For GACATGTTTCTAACTGCCCGCATTCTGTTC, the binding signal (log2 normalized intensity) was 1.8.

Consider GAAGTGGGGTAAGCAAGGCTCTTAGCAGAA, for which the binding signal (log2 normalized intensity) was -1.44.

Regarding CCCCCACCACAAAGCAGTGAGTGAAACATC, the binding signal (log2 normalized intensity) is 2.28.

Turning to AGGAACCTGTTTTACAGGACATAGTCCTCT, the binding signal (log2 normalized intensity) was 0.897.

With CCTGTTTACAATGGAAAGATTAGGTCAAAG, the binding signal (log2 normalized intensity) was determined as 1.48.

AGCCTGAGGCAGTTGGAAAATATTTCTCTG: the binding signal (log2 normalized intensity) is -1.24.

With TTCAGCTAGCTGAGTGAGTAGGTTCTCAGC, the binding signal (log2 normalized intensity) was -1.16.

Turning to GCCCCCAGCCAGGCCCCAGGCCAACCGGTT, the binding signal (log2 normalized intensity) came to 5.24.

With GGGGCCACCTTTTCAGCTTCCTCCTGCGTC, the binding signal (log2 normalized intensity) was -1.24.

In the case of GCCTGTGACAAAGTCCATCTGGGCAAGGTG, the binding signal (log2 normalized intensity) came to 4.17.

On to CAGGGTCCAACCCACAGGGGTAGAAGCTGA, for which the binding signal (log2 normalized intensity) was -0.939.

For CTGAGGAAAGGAAGATGCACATTCCCTCCA, the binding signal (log2 normalized intensity) was -1.33.

As for AAACATAGAAAGGAGTACACACCATAAGAG, the binding signal (log2 normalized intensity) was -1.3.

On to ACCTTCCATTACCACATTCTCACCACTAGG, for which the binding signal (log2 normalized intensity) is -0.686.

With CAACTATAGAAAGCCTTTGAACTGTGTTGC, the binding signal (log2 normalized intensity) came out at 2.21.

As to AGGTGGAGACCTCTGCAGGAGGACTGGATC, the binding signal (log2 normalized intensity) was -0.956.

On to TTGCTGGTCAAGCTAAGCACAACTGATTCT, for which the binding signal (log2 normalized intensity) is -1.2.

For ATTCACATCTCCAGTTCCAAAGTCCAGGTG, the binding signal (log2 normalized intensity) came out at 6.55.

For AAACCTACACAGACCCTCTTTTCTTTGTAC, the binding signal (log2 normalized intensity) was 1.09.

With TCTTCATTTCCCTCATGCAGGGAGGTCAAA, the binding signal (log2 normalized intensity) turned out to be 3.16.

With GGCAAAACACCCCTTTCACTTCTTCCCCTC, the binding signal (log2 normalized intensity) was 3.61.

Turning to ATTGTGAAACGTTTGAATTCTTGCCTATCC, the binding signal (log2 normalized intensity) is -0.841.

On to CTGTGTGGGAAGAGGGCCTAGGGCAGATCC, for which the binding signal (log2 normalized intensity) is -1.28.

In the case of TAACCTGCAGTTTCCCTATTCTCAGTGATA, the binding signal (log2 normalized intensity) is -0.292.

With GAAATTTCCTCTTACCACATCTCAACCTTT, the binding signal (log2 normalized intensity) was 3.82.

As to GAATTGGGACCTGAGAACATGTAATCATTT, the binding signal (log2 normalized intensity) turned out to be 0.552.

Take AGACTCAGCATGTCTTCTGACCTTTGGCAA: the binding signal (log2 normalized intensity) is 6.98.

Turning to ACTTCAAGGGAGTAAAGGTCGTTCTATCGG, the binding signal (log2 normalized intensity) worked out at 4.85.

As for TTGCAACCAAAGGAGTCCTGGCTGACAGAT, the binding signal (log2 normalized intensity) is -0.977.

In the case of GCCTAACTTTGATAGGCACAATCAGCAAAC, the binding signal (log2 normalized intensity) was -1.26.

For GGGGATGAAGGGGGCGGGGGCGAAAGGGAG, the binding signal (log2 normalized intensity) was -1.4.

Take CGGACGTGTTCCCACAGTGCCCTCTATTGG: the binding signal (log2 normalized intensity) turned out to be 2.88.

In the case of TCACCCACCAGAGGGAACGCCCGACGCGAA, the binding signal (log2 normalized intensity) was -1.37.

With CCACAACCTACCCTTTGCCCTGGACATATT, the binding signal (log2 normalized intensity) came out at 3.27.

For the sequence AGCCTCAAAGATCAAAGGTAGATGAATCCA, the binding signal (log2 normalized intensity) is 1.5.

On to ACATAGTCCCTGCACAGGTTCCTCGCCTAT, for which the binding signal (log2 normalized intensity) is -1.36.

On to GCTTGCAAGACTGCATTCTCTAGATGTCCC, for which the binding signal (log2 normalized intensity) amounted to 0.707.

Regarding GAGAGGAGCAGGGTATCAGTTGAACAGAAT, the binding signal (log2 normalized intensity) is -1.38.

As for ACCCAGGCATATCCAACCTTCTCCCACTTC, the binding signal (log2 normalized intensity) is -1.33.

On to AGGCCCCAGCCACGCCCTCTAACCCAGGTT, for which the binding signal (log2 normalized intensity) was 3.05.

As for CGGCCGCTCCCTCCCCTCCTCCCTTGCTCA, the binding signal (log2 normalized intensity) was 4.26.

In the case of GTCAGTCATACAGAGCTGTCACGCAGTGTT, the binding signal (log2 normalized intensity) is -1.18.

As to TCTGTCCTTTGTCCCACATCTGTGAAGATA, the binding signal (log2 normalized intensity) amounted to 1.44.
